# Out of some 280,000 compounds screened, about 100 (0.036%) were called active. The inconclusive results got no clear call from the source; some entries with a clear call stand among them for comparison. The call rests on the fitted dose curve; in most records, active means well fitted inhibition curve with a large enough effect in the signal ratio, with a control signal flat (not every such curve was filed as active); inconclusive means small, poorly fitted or top-dose-only effect, or effect the other way, or a change in a side signal; inactive means no such curve, though single readings can be large or run the other way; the % refers to the signal ratio. A potency beside an inconclusive call is a rough fit, not a confirmed value. A note “side channel” means that the fit belongs to a control or component signal, not to the main read-out.
# Target: Muscleblind-like protein 1 (Homo sapiens) (UniProt Q9NR56)
# Assay: qHTS Assay for Inhibitors of MBNL1-poly(CUG) RNA binding
# Conditions: TR-FRET MBNL1-His/biotin-(CUG)12 binding, 665/545 ratio; activity change, negative = inhibition: at 57.5 µM (top of the series)
# Outline: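 Inhibition of protein-RNA binding appears as loss of TR-FRET between terbium anti-His antibody on MBNL1-His and streptavidin-XL665 on biotin-(CUG)12. Activity is normalized to buffer-only and uninhibited-complex controls.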
# On the % scale 0 is the no-effect control and ±100 the full control effect; potency means the concentration at half of the fitted maximal effect; tags describe the fitted curve by direction and shape or compound fluorescence and quenching.
# Chain of UniProt Q9NR56 (Q9NR56 whole entry, looked up): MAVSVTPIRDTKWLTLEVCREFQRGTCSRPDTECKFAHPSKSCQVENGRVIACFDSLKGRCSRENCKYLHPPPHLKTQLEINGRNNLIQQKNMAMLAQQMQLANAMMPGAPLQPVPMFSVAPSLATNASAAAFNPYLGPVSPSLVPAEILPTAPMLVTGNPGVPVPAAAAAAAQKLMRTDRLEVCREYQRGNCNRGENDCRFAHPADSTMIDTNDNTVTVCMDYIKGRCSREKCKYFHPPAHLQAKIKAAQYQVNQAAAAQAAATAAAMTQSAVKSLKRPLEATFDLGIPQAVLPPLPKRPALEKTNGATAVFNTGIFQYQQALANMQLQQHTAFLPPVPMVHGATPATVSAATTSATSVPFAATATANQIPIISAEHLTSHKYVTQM
Compound,"activity change, negative = inhibition",Potency
Cc1nc(N2CCN(c3ccccn3)CC2)c2c(C)c(C(=O)Nc3ccc(Br)cc3C)sc2n1,inactive: 2.22%,
O=[N+]([O-])c1cc(Cl)ccc1Sc1ccccn1,,"inconclusive: 14.1 µM [quencher, side channel, partial curve]"
CC(C)Cc1nnc(NC(=O)c2cc(-c3ccncc3)nc3ccccc23)s1,,"inconclusive: 22.4 µM [quencher, side channel, partial curve]"
CN1CCN(c2ccccc2NC(=O)c2ccc(N3CCOCC3)c([N+](=O)[O-])c2)CC1,,"inconclusive: 20 µM [quencher, side channel, partial curve]"
COc1ccc2cc3c(N)c(C(=O)N4CCCC4)sc3nc2c1,,"inconclusive: 7.08 µM [quencher, side channel, partial curve]"
O=S(=O)(c1ccc2c(c1)OCCO2)N1CCC(c2nc3ccccc3s2)CC1,,"inconclusive: 28.2 µM [fluorescent, side channel, single point]"
Cc1ccsc1/C=C1/SC(=O)N(CC(=O)N2CCCC2)C1=O,,"inconclusive: 3.98 µM [quencher, side channel, full curve]"
COCCN1CC(O)=C(c2nc3ccccc3c(=O)[nH]2)C1=N,inactive: -8.2%,
CN(C)c1ccc(-c2nnc(-c3cccnc3)o2)cc1,,"inconclusive: 31.6 µM [quencher, side channel, single point]"
COc1cc(/C=N/n2cnnc2)ccc1OC(=O)c1cccnc1,,"inconclusive: 44.7 µM [quencher, side channel, single point]"
O=C(c1cccc(C(F)(F)F)c1)C1CCCN(C(=O)/C=C/c2cnc[nH]2)C1 (stereo not drawn),,"inconclusive: 31.6 µM [quencher, side channel, single point]"
CSc1ccc(C(=O)NCC(c2ccco2)N(C)C)cc1[N+](=O)[O-] (stereo not drawn),,"inconclusive: 10 µM [quencher, side channel, partial curve]"
CC(=O)Oc1ccccc1C1=NN(C(=O)/C=C/c2ccccc2)C(c2ccccc2)C1 (stereo not drawn),inactive: 3.34%,
CCOC(=O)c1sc(NC(=O)CCN2C(=O)c3ccccc3C2=O)c(C(=O)OCC)c1C,,"inconclusive: 0.1 µM [fluorescent, side channel, full curve, poor fit]"
CN1CCc2c(sc3nc(SCC(N)=O)n(-c4ccccc4)c(=O)c23)C1,,"inconclusive: 28.2 µM [quencher, side channel, partial curve]"
COc1cccc(/C=N/Nc2nn3cnnc3c3ccccc23)c1,,"inconclusive: 17.8 µM [quencher, side channel, partial curve]"
COc1cccc(CCNc2ccc(N3C(=O)CC(C)C3=O)cc2[N+](=O)[O-])c1 (stereo not drawn),,"inconclusive: 5.62 µM [quencher, side channel, partial curve]"
N#Cc1c(NCCO)ccc([N+](=O)[O-])c1NCCO,,"inconclusive: 15.8 µM [quencher, side channel, partial curve]"
CCCOC(=O)C1=C(C)NC2=C(C(=O)CC(C)(C)C2)C1c1cccnc1 (stereo not drawn),,"inconclusive: 31.6 µM [quencher, side channel, partial curve]"
Cc1nc2ccccc2c2oc(C(=O)N3CCN(C(=O)c4ccco4)CC3)cc12,,"inconclusive: 35.5 µM [quencher, side channel, single point]"

Compound,"activity change, negative = inhibition",Potency
Fc1ccccc1CSc1nnc2ccc(-c3ccncc3)nn12,,"inconclusive: 15.8 µM [quencher, side channel, partial curve]"
CC1CN/C(=C\C(=O)c2ccc(Br)cc2)C(=O)N1 (stereo not drawn),,"inconclusive: 3.16 µM [quencher, side channel, single point]"
C[n+]1ccc(CC2C(=[N+]([O-])[O-])C=Nc3ncnn32)cc1 (stereo not drawn),,"inconclusive: 28.2 µM [quencher, single point]"
O=C(Nc1cccc(C(F)(F)F)c1)Nn1cnnc1,,"inconclusive: 79.4 µM [inhibitor, single point]"
CCOCCn1c(SCCc2ccccc2)nc2c1c(=O)[nH]c(=O)n2C,inactive: -2.07%,
Cc1ccc2cc(CN(CC3CCCO3)S(=O)(=O)c3cccc4nsnc34)c(=O)[nH]c2c1 (stereo not drawn),,"inconclusive: 14.1 µM [quencher, side channel, partial curve]"
O=C(NCCc1ccc(F)cc1)c1ccc([N+](=O)[O-])cc1,,"inconclusive: 8.91 µM [quencher, side channel, partial curve]"
O=C(Nc1cccc(C(F)(F)F)c1)c1ccc2nc(-c3ccco3)c(-c3ccco3)nc2c1,,"inconclusive: 17.8 µM [quencher, side channel, single point]"
Cc1ccc(S(=O)(=O)NCCCNc2ccc([N+](=O)[O-])cc2)cc1,,"inconclusive: 11.2 µM [quencher, side channel, partial curve]"
Cc1nc2cc3ccccc3cc2c(=O)[nH]1,,"inconclusive: 12.6 µM [quencher, side channel, partial curve]"
CCCCC(=O)NCc1ccc(Cl)cc1,inactive: -10.6%,
Oc1ccc2nnc3c(Br)cnn3c2c1,,"inconclusive: 28.2 µM [quencher, side channel, partial curve]"
O=C(O)c1cc(O)ccc1N=Nc1ccccc1,,"inconclusive: 7.94 µM [quencher, side channel, partial curve]"
CCc1nnc(NC(=O)CSc2nnc(-c3ccccc3O)n2CC)s1,inactive: 3.76%,
O=C(Nc1ccc(N2CCN(C(=O)c3ccc(Cl)cc3)CC2)cc1)c1ccc([N+](=O)[O-])o1,,"inconclusive: 2.82 µM [quencher, side channel, full curve, poor fit]"
CC(C)OC(=O)CC(=O)CSc1nc2c(cc1C#N)CCCCCC2,,"inconclusive: 28.2 µM [quencher, side channel, single point]"
COc1cc2ccccc2cc1C(=O)Nc1ccc(N2CCN(C)CC2)cc1,,"inconclusive: 7.08 µM [quencher, side channel, partial curve]"
O=C(Nc1nc(-c2ccncc2)cs1)C1COc2ccccc2O1 (stereo not drawn),,"inconclusive: 39.8 µM [quencher, side channel, single point]"
CC(=O)c1ccc(Nc2c([N+](=O)[O-])ccc3nonc23)cc1,,"inconclusive: 5.62 µM [quencher, side channel, partial curve]"
O=C(O)CN1C(=O)/C(=C\c2cc([N+](=O)[O-])ccc2OCc2ccccc2Cl)SC1=S,,"inconclusive: 10 µM [quencher, partial curve]"

Compound,"activity change, negative = inhibition",Potency
O=C(CN1C(=O)C2C3C=CC(C3)C2C1=O)N1CC(=O)N(CCc2ccccc2)C(=O)C1 (stereo not drawn),,"inconclusive: 0.158 µM [quencher, side channel, full curve, poor fit]"
COc1ccc(-c2cc3ccc(OCc4nn[nH]n4)cc3oc2=O)cc1OC,,"inconclusive: 15.8 µM [quencher, side channel, partial curve]"
CCC(=O)Nc1ccc2nc3c(=O)[nH]c(=S)[nH]c3nc2c1,,"inconclusive: 2.24 µM [quencher, side channel, full curve]"
Cc1ccc(C)c(N=Nc2ccc(O)c3ncccc23)c1,inactive: 6.02%,
Cc1cc(C(=O)O)ccc1-c1ccc(/C=N/n2cnnc2)o1,,"inconclusive: 15.8 µM [quencher, side channel, partial curve]"
C=CCNC(=O)c1cc2c(=O)n3cccc(C)c3nc2s1,,"inconclusive: 3.55 µM [quencher, side channel, single point]"
Cc1ccc(-c2nc(Cl)nc3ccccc23)cc1,,"inconclusive: 10 µM [quencher, side channel, partial curve]"
O=C(CSc1nnnn1-c1ccc(F)cc1)c1ccc(O)c(O)c1,,"inconclusive: 22.4 µM [quencher, side channel, single point]"
Oc1ccc(C(=S)N2CCN(Cc3ccccc3)CC2)cc1,inactive: 3.38%,
O=C(Cc1cccs1)Nc1ccccc1C(=O)O,,"inconclusive: 126 µM [inhibitor, partial curve]"
Cc1ccc(N/C=C(/C#N)c2ccsc2)cc1,inactive: 5.41%,
Cc1nnc2ccc(-c3ccc(NC(=O)c4ccco4)cc3)nn12,,"inconclusive: 12.6 µM [quencher, side channel, partial curve]"
Cc1sc2ncnc(NCC(O)c3ccc([N+](=O)[O-])cc3)c2c1C (stereo not drawn),,"inconclusive: 3.98 µM [quencher, side channel, full curve]"
O=C(c1ccccc1)c1nn(-c2ccccc2)c(=O)cc1C(F)(F)F,,"inconclusive: 14.1 µM [quencher, side channel, partial curve]"
CCOc1ccc(CCNC(=O)C2CCN(C(=O)N(C)C)CC2)cc1OCC,,"inconclusive: 1.78 µM [quencher, side channel, full curve, poor fit]"
C/C(=N\NC(=O)C(C)Sc1ccccc1)c1ccc([N+](=O)[O-])cc1 (stereo not drawn),,"inconclusive: 10 µM [quencher, side channel, partial curve]"
CCC(=O)NC1=C(NC(C)c2ccccc2)C(=O)c2ccccc2C1=O (stereo not drawn),,"inconclusive: 11.2 µM [quencher, side channel, partial curve]"
O=C(OCc1ccc([N+](=O)[O-])cc1)c1ccccn1,,"inconclusive: 15.8 µM [quencher, side channel, partial curve]"
